From the supplement of paper PMC11876631
Residue numbers refer to the chain shown, from its start. Names may count otherwise. ± gives the standard deviation of the averaged measurements. Laboratory Escherichia coli strains with one amino-acid change in an essential protein, pooled on minimal glucose agar with carbenicillin or gentamicin at twice the control MIC (plus kanamycin and chloramphenicol for the plasmids), 48 h. Fold change of barcode share against drug-free plates; higher = less susceptible. Active = above 20 in both replicates (the paper's putatively resistant). '<' = one read or none on drug, '>' = one read or none on a drug-free plate. Shares are relative, so most strains fall below 1 when a few take over. Listed are strains with at least 15 reads on both drug-free plates, and hits; most hits rest on fewer reference reads. Replicate rank correlation about 0.5. Edits are read from barcodes.

B1: hisS F133P (protein)
chain: MAKNIQAIRGMNDYLPGETAIWQRIEGTLKNVLGSYGYSEIRLPIVEQTPLFKRAIGEVTDVVEKEMYTFEDRNGDSLTLRPEGTAGCVRAGIEHGLLYNQEQRLWYIGPMFRHERPQKGRYRQFHQLGCEVPGLQGPDIDAELIMLTARWWRALGISEHVTLELNSIGSLEARANYRDALVAFLEQHKEKLDEDCKRRMYTNPLRVLDSKNPEVQALLNDAPALGDYLDEESREHFAGLCKLLESAGIAYTVNQRLVRGLDYYNRTVFEWVTNSLGSQGTVCAGGRYDGLVEQLGGRATPAVGFAMGLERLVLLVQAVNPEFKADPVVDIYLVASGADTQSAAMALAERLRDELPGVKLMTNHGGGNFKKQFARADKWGARVAVVLGESEVANGTAVVKDLRSGEQTAVAQDSVAAHLRTLLG
B2: hisS V132A (protein)
chain: B1 chain with V132A, P133F
B3: hisS V132W (protein)
chain: B1 chain with V132W, P133F
B4: hisS V132Q (protein)
chain: B1 chain with V132Q, P133F
B5: hisS V132D (protein)
chain: B1 chain with V132D, P133F
B6: argH L339P (protein)
chain: MALWGGRFTQAADQRFKQFNDSLRFDYRLAEQDIVGSVAWSKALVTVGVLTAEEQAQLEEALNVLLEDVRARPQQILESDAEDIHSWVEGKLIDKVGQLGKKLHTGRSRNDQVATDLKLWCKDTVSELLTANRQLQSALVETAQNNQDAVMPGYTHLQRAQPVTFAHWCLAYVEMLARDESRLQDALKRLDVSPLGCGALAGTAYEIDREQLAGWLGFASATRNSLDSVSDRDHVLELLSAAAIGMVHLSRFAEDLIFFNTGEAGFVELSDRVTSGSSLMPQKKNPDALELIRGKCGRVQGALTGMMMTLKGLPLAYNKDMQEDKEGLFDALDTWLDCPHMAALVLDGIQVKRPRCQEAAQQGYANATELADYLVAKGVPFREAHHIVGEAVVEAIRQGKPLEDLPLSELQKFSQVIDEDVYPILSLQSCLDKRAAKGGVSPQQVAQAIAFAQARLG
B7: hisS V316A (protein)
chain: B1 chain with P133F, V316A
B8: hisS V316W (protein)
chain: B1 chain with P133F, V316W
B9: hisS V316Q (protein)
chain: B1 chain with P133F, V316Q
B10: hisS V316D (protein)
chain: B1 chain with P133F, V316D
B11: argH M341A (protein)
chain: B6 chain with P339L, M341A

molecular target: Escherichia coli (laboratory strain); assay: barcode share on antibiotic plates over drug-free plates; higher = less susceptible; details: antibiotic: carbenicillin; 2× MIC (3.1 µg/mL)
Method: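 A pool of E. coli strains, each edited to carry one amino-acid change in an essential protein, was grown for 48 h on minimal glucose agar with or without antibiotic; strain barcodes were sequenced; mean of two replicates.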

Row | Protein | fold change of barcode share
1 | B1 | 0.419 ± 0.17
2 | B2 | 0.249 ± 0.018
3 | B3 | 0.428 ± 0.12
4 | B4 | 0.204 ± 0.089
5 | B5 | 0.233 ± 0.011
6 | B6 | 0.385 ± 0.032
7 | B7 | 0.293 ± 0.19
8 | B8 | 0.202 ± 0.071
9 | B9 | 0.222 ± 0.02
10 | B10 | 0.29 ± 0.11
11 | B11 | 1.25 ± 0.3

same assay, conditions: antibiotic: gentamicin; 2× MIC (MIC 0.45 µg/mL)

Row | Protein | fold change of barcode share
12 | B2 | 0.00312 ± 0.0014
13 | B3 | 0.00654 ± 0.0033
14 | B4 | 0.00738 ± 0.00041
15 | B5 | < 0.00248
16 | B6 | 0.0488 ± 0.051
17 | B7 | 0.00732 ± 0.0058
18 | B8 | < 0.00788
19 | B9 | < 0.00674
20 | B10 | < 0.00546
21 | B11 | 0.011 ± 0.0022
